Results on 172 sequences are retold here after PMC6212790.

The list shows a part of the results. At the low end of the ranking the order means little.

This assay has as its target T1, GST-Rok (full length) (UniProt O34857).
T1 sequence: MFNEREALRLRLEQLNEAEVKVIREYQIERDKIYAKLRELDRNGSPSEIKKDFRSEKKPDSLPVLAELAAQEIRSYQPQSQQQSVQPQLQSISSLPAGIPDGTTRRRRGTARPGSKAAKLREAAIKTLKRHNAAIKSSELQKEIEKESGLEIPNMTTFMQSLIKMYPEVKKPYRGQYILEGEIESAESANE
Nature of the assay: protein binding microarray.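 Note: rank score from −0.5 (least bound) to 0.5 (best bound).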 As to conditions: Rok is a gene silencer of Bacillus subtilis; high values mean tight binding; most listed sequences are background and not binding sites; double strand, one strand shown.
The sequence ATCGTCAG gave a binding signal of -0.134 E-score.

For the sequence ACGACCAG, the binding signal is -0.163 E-score.

In the case of GCTTTATA, the binding signal came out at 0.0907 E-score.

For AGCCCATC, the binding signal is -0.189 E-score.

GCCCCCGC showed a binding signal of -0.351 E-score.

For the sequence CTCTCCTC, the binding signal was -0.332 E-score.

ATGTATCC gave a binding signal of 0.262 E-score.

Turning to CGGTGCTA, the binding signal is -0.072 E-score.

With GCCAGAGA, the binding signal is -0.126 E-score.

Take CACGCACA: the binding signal is 0.00624 E-score.

On to ATAGGGCG, for which the binding signal was -0.0648 E-score.

CGCGTATA yielded a binding signal of 0.213 E-score.

As for ACTGGTTC, the binding signal stood at 0.0747 E-score.

For CACGAACG, the binding signal is -0.113 E-score.

With AGCCTTCC, the binding signal was -0.364 E-score.

In turn, GGGCTCAC came in with a binding signal of -0.254 E-score.

As to ACGCGCCA, the binding signal was -0.0487 E-score.

ACTCCGCA had a binding signal of 0.0638 E-score.

GCGCGGAA showed a binding signal of -0.142 E-score.

ATGTCATA: the binding signal is 0.164 E-score.

In the case of AGCTCAGA, the binding signal was -0.0992 E-score.

The sequence AGCAACTG yielded a binding signal of -0.0274 E-score.

For AACTAAGC, the binding signal was 0.0868 E-score.

As for CCATCGTA, the binding signal is -0.0738 E-score.

As for CACGGATG, the binding signal was -0.194 E-score.

As for AAGTGGTA, the binding signal turned out to be 0.348 E-score.

AGCGTGCA gave a binding signal of -0.0929 E-score.

Consider ATACCTAG, for which the binding signal came out at 0.31 E-score.

AGAGAGCG gave a binding signal of -0.279 E-score.

CTCAAGAA displayed a binding signal of -0.0423 E-score.

In turn, CGTGGGTA yielded a binding signal of 0.0305 E-score.

For the sequence ACAGTGCG, the binding signal was 0.00979 E-score.

In the case of ATGCCCAG, the binding signal is -0.37 E-score.

GAGTGAGA displayed a binding signal of -0.153 E-score.

With CTCGCTAC, the binding signal amounted to 0.044 E-score.

AAGGCACT displayed a binding signal of -0.0347 E-score.

With AATAGTCA, the binding signal was 0.162 E-score.

In the case of CTAGACAG, the binding signal was -0.0562 E-score.

As for CGCTGAAC, the binding signal is -0.134 E-score.

AACTTTGG came in with a binding signal of 0.00806 E-score.

Turning to ACTAGTCC, the binding signal turned out to be 0.108 E-score.

As for AGATGGTA, the binding signal stood at 0.31 E-score.

With CCCACCAC, the binding signal is -0.324 E-score.

CTCTGCTC yielded a binding signal of -0.000994 E-score.

As to ATTCACGC, the binding signal was -0.0652 E-score.

Regarding AGTTCAAT, the binding signal is 0.0258 E-score.

The sequence ACGGGAGT gave a binding signal of -0.187 E-score.

ATTGACTG: the binding signal amounted to 0.17 E-score.

In turn, TATATGCA showed a binding signal of 0.32 E-score.

Regarding ACAGCGAT, the binding signal is -0.0187 E-score.

In turn, CGTCTCTA yielded a binding signal of -0.15 E-score.

In turn, AACGAATT yielded a binding signal of 0.325 E-score.

As for TAAGGAAA, the binding signal is 0.00759 E-score.

As for GTATGGAC, the binding signal is 0.199 E-score.

GCGGTCAC: the binding signal is -0.226 E-score.

ACAACAGT gave a binding signal of -0.00181 E-score.

For the sequence ACTATGAT, the binding signal turned out to be 0.218 E-score.

In turn, CCGTTTTA gave a binding signal of 0.0815 E-score.

As to GCAAAACC, the binding signal is -0.161 E-score.

Sequence CACAATTC gave a binding signal of -0.0187 E-score.

AGGCGAGC registered a binding signal of -0.153 E-score.

The sequence TAGGTCGA yielded a binding signal of 0.173 E-score.

On to GAACGCGC, for which the binding signal turned out to be 0.0333 E-score.

CTCTATCC: the binding signal was -0.158 E-score.

Turning to CCGCCTCA, the binding signal is -0.275 E-score.

The sequence CCCGATAC yielded a binding signal of 0.00567 E-score.

TAGGAATA returned a binding signal of 0.242 E-score.

CGCATGCA showed a binding signal of 0.0144 E-score.

Regarding ATGACCTC, the binding signal was -0.189 E-score.

In turn, GCCTGGGA gave a binding signal of -0.327 E-score.

For ACTGCGTC, the binding signal is -0.0103 E-score.

On to ACAGAAAG, for which the binding signal was determined as 0.157 E-score.

As to ATAGGGAA, the binding signal amounted to 0.128 E-score.

Sequence CGCACCGA displayed a binding signal of -0.0697 E-score.

For the sequence ACCACGAG, the binding signal is -0.083 E-score.

CATTCAAC had a binding signal of 0.058 E-score.

For AATAATTC, the binding signal amounted to 0.233 E-score.

Sequence ACAATCTG displayed a binding signal of 0.123 E-score.

ATACAGCG had a binding signal of 0.0286 E-score.

Sequence ATCAATCG registered a binding signal of -0.00632 E-score.

CTCGCCTA showed a binding signal of -0.0466 E-score.

CAGGTCCA displayed a binding signal of -0.375 E-score.

As to AAGAGTTG, the binding signal is -0.0832 E-score.

AATTTGCG had a binding signal of 0.151 E-score.

Sequence GCTGTGCA displayed a binding signal of -0.129 E-score.

Sequence ACAGGCAT displayed a binding signal of 0.0025 E-score.

In turn, AATCCCCA came in with a binding signal of -0.251 E-score.

The sequence CCCTACGG had a binding signal of -0.405 E-score.

As to GGCCCGCC, the binding signal was -0.437 E-score.

With CACCCTGC, the binding signal was -0.14 E-score.

The sequence CGAGCTAC registered a binding signal of 0.115 E-score.

The sequence TATACGCA gave a binding signal of 0.227 E-score.

Consider GAGGTTAA, for which the binding signal was -0.0161 E-score.

Sequence ACGTACAG showed a binding signal of 0.165 E-score.

Take CAAACGAA: the binding signal came out at 0.108 E-score.

CACTGGTA came in with a binding signal of -0.02 E-score.

In turn, CCACACCC showed a binding signal of -0.17 E-score.

With GACCTGGC, the binding signal was -0.314 E-score.

ACACCTAG: the binding signal worked out at 0.0912 E-score.

ACTTAATG returned a binding signal of 0.192 E-score.

CGGCTGAA yielded a binding signal of -0.0243 E-score.

Sequence CAAACCTG had a binding signal of 0.00968 E-score.

Take ATGTGGTA: the binding signal came out at 0.204 E-score.

As for AAGTTATC, the binding signal was 0.24 E-score.

Turning to ACTACAAC, the binding signal came to 0.293 E-score.

As to CGCATGAA, the binding signal is -0.174 E-score.

Sequence GATGACGC registered a binding signal of -0.218 E-score.

Regarding CGCGTTGC, the binding signal is -0.26 E-score.

Consider ATCTGTTA, for which the binding signal came to 0.192 E-score.

Take AACTGAAA: the binding signal came out at 0.0317 E-score.

Consider CGTGCGGC, for which the binding signal is -0.249 E-score.

In turn, CAACCACC had a binding signal of -0.163 E-score.

Take CTCAATAA: the binding signal came to 0.0681 E-score.

Regarding GTTGAAAA, the binding signal was 0.108 E-score.

The sequence CCTCCTGC yielded a binding signal of -0.361 E-score.

Regarding ACTTAGGG, the binding signal was -0.0547 E-score.

The sequence GAGTATTA showed a binding signal of 0.208 E-score.

On to CCGATTCG, for which the binding signal was -0.0898 E-score.

AACCATTC came in with a binding signal of -0.146 E-score.

ATGTAAGC returned a binding signal of 0.145 E-score.

Sequence ATCCGCAA registered a binding signal of -0.0455 E-score.

The sequence CTAGTAAG gave a binding signal of 0.151 E-score.

In turn, AGGAGGGC yielded a binding signal of -0.445 E-score.

The sequence AACGGGTG had a binding signal of -0.105 E-score.

The sequence GGGACATA came in with a binding signal of -0.242 E-score.

AATCGTCT gave a binding signal of -0.036 E-score.

In turn, CTTGAGCC showed a binding signal of -0.343 E-score.

As to AGCGGAGA, the binding signal worked out at 0.0026 E-score.

In the case of CGAGCCTA, the binding signal is -0.0473 E-score.

Take CCAAACAC: the binding signal was -0.0316 E-score.

The sequence AAGGGCCG displayed a binding signal of -0.216 E-score.

On to CTAGCGAA, for which the binding signal amounted to 0.165 E-score.

CATATTAC registered a binding signal of 0.289 E-score.

On to TGGCCACA, for which the binding signal is 0.0692 E-score.

As to AAGGGGAA, the binding signal is -0.239 E-score.

With GTGTCCAA, the binding signal was -0.212 E-score.

For the sequence GTGCATTA, the binding signal worked out at 0.168 E-score.

Regarding GGCTCCTA, the binding signal was -0.222 E-score.

Regarding GCACCCCA, the binding signal is -0.291 E-score.

ACGCTTCT: the binding signal is -0.113 E-score.

CGTCAGAC: the binding signal is -0.227 E-score.

The sequence AAACACCG showed a binding signal of -0.0206 E-score.

For AGCTCTTC, the binding signal was -0.146 E-score.

CGAAATAA yielded a binding signal of 0.201 E-score.

In turn, ATATTGTA came in with a binding signal of 0.375 E-score.

With CCGACAAG, the binding signal was -0.204 E-score.

CCTCTAAC: the binding signal is -0.0188 E-score.

Consider GCAAACGC, for which the binding signal was -0.151 E-score.

For the sequence ATGAATTA, the binding signal was determined as 0.353 E-score.

In turn, AAGACTTA registered a binding signal of -0.0188 E-score.

Sequence AGTGTTAA came in with a binding signal of 0.0921 E-score.

CAGTAAAA returned a binding signal of 0.264 E-score.

As to TGTATGAA, the binding signal was found to be 0.0597 E-score.

Consider ACCCCCTA, for which the binding signal was -0.351 E-score.

The sequence ATCCTGCC gave a binding signal of -0.0728 E-score.

In turn, AGAACGCA gave a binding signal of -0.0343 E-score.

The sequence ACCAACTC registered a binding signal of 0.0787 E-score.

AGTTTCGC displayed a binding signal of 0.0913 E-score.

In turn, CACATGTG yielded a binding signal of -0.211 E-score.

Turning to GCTAGAGC, the binding signal is -0.185 E-score.

Sequence CAAACGCG showed a binding signal of -0.243 E-score.

CTATTCAA came in with a binding signal of 0.0979 E-score.

In turn, CATGTAGG came in with a binding signal of 0.116 E-score.

Consider ACCGCCAC, for which the binding signal was -0.135 E-score.

With CCGGAACC, the binding signal is -0.266 E-score.

As for GCTACACA, the binding signal was 0.0448 E-score.

As to AAAGTCTT, the binding signal is -0.0777 E-score.

The sequence CTTATAGC displayed a binding signal of 0.186 E-score.

As for CAGTGCCG, the binding signal is -0.272 E-score.

Turning to CGATGACA, the binding signal came out at 0.0223 E-score.

For AAGTGGAC, the binding signal is -0.18 E-score.

GGCGGAAA: the binding signal is -0.055 E-score.
